About 2,200 (0.71%) of roughly 310,000 compounds showed an effect of 50% or more. Effects have a minus sign here. The list shows a part of the results.
biological target: human ether-à-go-go-related gene (hERG) potassium channel (human, UniProt Q12809); experiment: primary screen, population patch clamp on CHO cells stably expressing hERG
Sequence (Q12809 whole entry, looked up): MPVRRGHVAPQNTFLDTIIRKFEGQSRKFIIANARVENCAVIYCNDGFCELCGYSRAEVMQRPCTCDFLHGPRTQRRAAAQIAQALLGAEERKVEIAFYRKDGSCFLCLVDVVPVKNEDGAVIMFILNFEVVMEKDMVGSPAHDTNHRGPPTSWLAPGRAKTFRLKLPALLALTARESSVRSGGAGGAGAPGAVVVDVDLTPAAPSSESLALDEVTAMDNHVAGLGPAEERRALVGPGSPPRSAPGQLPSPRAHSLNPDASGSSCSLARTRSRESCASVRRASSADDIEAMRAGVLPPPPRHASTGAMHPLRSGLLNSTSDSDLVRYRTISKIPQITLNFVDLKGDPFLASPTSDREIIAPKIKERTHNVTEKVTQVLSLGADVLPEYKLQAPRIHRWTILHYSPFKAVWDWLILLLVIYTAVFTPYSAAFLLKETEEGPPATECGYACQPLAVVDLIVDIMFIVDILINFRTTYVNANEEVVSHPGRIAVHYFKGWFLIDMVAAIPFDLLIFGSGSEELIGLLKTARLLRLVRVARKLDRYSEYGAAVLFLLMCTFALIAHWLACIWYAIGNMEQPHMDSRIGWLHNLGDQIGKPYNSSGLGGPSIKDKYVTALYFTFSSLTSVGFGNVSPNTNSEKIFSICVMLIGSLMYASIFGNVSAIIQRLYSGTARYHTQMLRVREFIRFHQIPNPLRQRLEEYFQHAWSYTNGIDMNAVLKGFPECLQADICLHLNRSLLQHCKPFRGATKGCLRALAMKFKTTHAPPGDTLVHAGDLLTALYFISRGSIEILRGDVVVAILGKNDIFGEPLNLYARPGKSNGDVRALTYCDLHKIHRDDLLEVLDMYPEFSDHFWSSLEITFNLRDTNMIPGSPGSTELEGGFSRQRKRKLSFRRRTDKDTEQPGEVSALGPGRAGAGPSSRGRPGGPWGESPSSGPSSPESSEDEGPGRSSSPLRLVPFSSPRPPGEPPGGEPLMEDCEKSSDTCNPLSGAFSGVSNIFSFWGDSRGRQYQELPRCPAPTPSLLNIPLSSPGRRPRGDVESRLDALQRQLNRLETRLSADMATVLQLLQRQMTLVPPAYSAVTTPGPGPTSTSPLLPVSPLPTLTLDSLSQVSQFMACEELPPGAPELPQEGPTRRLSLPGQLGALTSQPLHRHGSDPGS

Row | SMILES | hERG current change (%, negative = inhibition) at 1uM [%]
1 | CCn1c(SCC(=O)N2CCN(c3ccccc3F)CC2)nnc1-c1ccoc1C | -3.74
2 | Clc1ccc(C[n+]2cc(-c3ccc(Cl)cc3)n3c2CCC3)cc1.[Cl-] | -12
3 | O=C(Nc1ccccc1NC(=O)c1c(F)cccc1F)c1c(F)cccc1F | 15.9
4 | COc1ccc(C(=O)OC(C(=O)c2ccccc2)c2ccccc2)cc1 (stereo not drawn) | 8.4
5 | Cc1csc(=O)n1CCC(=O)O | 4.44
6 | CCn1cc(SCC(N)=O)c2ccccc21 | 7.78
7 | O=C(O)C1CC(=O)N(Cc2cccnc2)C1 (stereo not drawn) | 10.2
8 | CCOC(=O)c1cnc2ccccc2c1Nc1cc(C(=O)O)ccc1C | 8.05
9 | Cc1ccc2nccc(C(=O)N3CCCC(Nc4ccc(C)c(C)c4)C3)c2c1 (stereo not drawn) | 1.96
10 | COC(CNC(=O)c1ccc2c(c1)ncn2C1CCCCCC1)OC | 5.54
11 | O=C(CSc1ccccc1)Nc1ccc2sccc2c1 | 11.9
12 | COc1ccc(C2=NN(C(=O)c3cccs3)C(c3ccccc3OC)C2)cc1OC (stereo not drawn) | 2.8
13 | O=C(CCC1CCN(C(=O)c2cncs2)CC1)Nc1ccccc1 | 13.9
14 | OCC[C@H]1C[C@@H](O)[C@H](O)[C@@]2(Cc3ccccc3CO2)O1 | 10.7
15 | CCC(=O)NC(=S)Nc1ccc(NC(=O)c2ccco2)cc1 | 20.6
16 | O=C(NCc1ccco1)c1ccc(CS(=O)(=O)Cc2ccc(F)cc2)o1 | 3.97
17 | O=C(Nc1cccc2ccccc12)N1CC=C(c2ccccc2)CC1 | 12.4
18 | CCCCCCSc1nsc(NC(=O)CCC)n1 | 5.02
19 | COc1ccc(N(CC(=O)N2CCN(c3ccc(Cl)cc3)CC2)S(=O)(=O)c2c(C)noc2C)cc1 | 5.9
20 | CCOc1ccc(C(CC(=O)O)NC(=O)COc2ccccc2)cc1OC (stereo not drawn) | 14.3

Row | SMILES | hERG current change (%, negative = inhibition) at 1uM [%]
21 | Cc1cc(NC(=O)COC(=O)C2CCC(=O)N2)c([N+](=O)[O-])cc1C (stereo not drawn) | 18.4
22 | CC(=O)n1nc(-c2ccc(Cl)cc2)nc1NCc1ccco1 | 13.5
23 | O=C(O)c1ccc(/C=N/Nc2ncc(Cl)cc2Cl)cc1 | 12
24 | Cc1cc(N2CCOCC2)nc2ccc(NC(=S)NCCC(C)C)cc12 | -11.4
25 | CSCCC(NS(=O)(=O)c1ccc(Cl)cc1)C(=O)OCC(=O)c1c(C)[nH]c2ccccc12 (stereo not drawn) | 9.1
26 | CCn1c2ccccc2c2nnc(SCC(=O)OCN3C(=O)c4ccccc4C3=O)nc21 | 2.4
27 | CCOC(=O)c1csc(NC(=O)COc2ccc(Cl)cc2Cl)n1 | 3.46
28 | O=C(Nc1cccc(Cl)c1)Nc1nnc(-c2ccccc2)o1 | 11.7
29 | O=C(O)c1cccc(CN2C(=O)SC(Nc3ccccc3)C2=O)c1 (stereo not drawn) | 6.58
30 | C=CCN(C(=O)c1csnn1)C(C(=O)NCc1ccc(F)cc1)c1ccc(F)cc1 (stereo not drawn) | 1.15
31 | Cc1ccc(C(=O)Nc2cccnc2)cc1NC(=O)c1ccco1 | 7.5
32 | CCCc1cc(C(=O)Nc2cc(OC)c(Cl)cc2OC)no1 | 20.2
33 | Cc1ccccc1NCCNc1ccccc1C | 3.13
34 | CCOC(=O)c1cn[nH]c1C(F)(F)F | 11.9
35 | COCCNC(=O)Cn1cnc2c(cnn2-c2ccc(C)cc2)c1=O | -0.31
36 | O=C(c1ccc(Br)cc1)N(c1ccccn1)C1CCCCC1 | 5.08
37 | CCC(=O)N(Cc1ccc(C)cc1)Cc1cc2cc3c(cc2[nH]c1=O)OCO3 | 0.914
38 | CSc1cccc(NC(=O)CC(C)n2ccnc2)c1 (stereo not drawn) | 11.5
39 | CCc1nnc(NC(=O)c2ccc(NC(=O)C(C)C)cc2)s1 | 12
40 | CCOC(=O)C1(Cc2cccc(OC)c2)CCCN(S(=O)(=O)c2cccnc2)C1 (stereo not drawn) | -10.1

Row | SMILES | hERG current change (%, negative = inhibition) at 1uM [%]
41 | COc1cccc(CC2(CO)CCCN(Cc3ccc(CO)o3)C2)c1 (stereo not drawn) | -1.35
42 | O=C(c1ncc[nH]1)c1ccccc1C(=O)N1CCOCC1 | 7.24
43 | Cc1cc(NC(=O)C2CCCCC2)nc2c1c(=O)oc1ccccc12 | 4.97
44 | CC(CCc1ccccc1)NC(=O)c1ccc(F)cc1 (stereo not drawn) | 12.2
45 | COC(=O)c1c(C)[nH]c(C)c1C(C)=O | 12.3
46 | CN(C)C(=O)CSc1n[nH]c(-c2ccco2)n1 | 6.67
47 | Cc1nnnn1/C(=C\c1ccccc1)C(=O)OCC(=O)NC1CCCCC1 | 11
48 | Cc1ccc(C)c(NNC(=O)C(=O)NNc2cc(C)ccc2C)c1 | 13.5
49 | O=C(Nc1ccc(N2CCN(C(=O)c3ccccc3)CC2)cc1)c1ccc2c(c1)OCCO2 | 10.6
50 | CCCn1c(=O)c(-c2ccccc2)c(O)c2ccccc21 | 3.97
51 | CCc1ccccc1NC(=O)c1nnn(CC(=O)Nc2cccc(C)c2)c1N | 3.09
52 | CCOC(=O)C(C)N1C(=O)S/C(=C\c2ccc(-c3ccccc3C(=O)O)o2)C1=O (stereo not drawn) | 11.5
53 | O=C(COC(=O)C1CCC(=O)N1)Nc1cc(Cl)ccc1Cl (stereo not drawn) | 10.7
54 | O=C(Nc1c(Cl)ccc2nsnc12)c1ccco1 | 15.5
55 | O=S(=O)(NCc1ccc2c(c1)OCO2)c1cccc(S(=O)(=O)N2CCOCC2)c1 | 23.6
56 | NNC(=S)NCc1ccccc1 | 1.14
57 | COc1ccc(C(=O)CSc2nc3ccccc3n2CC(=O)NC(C)(C)C)cc1 | 14.9
58 | O=C(NCc1ccc(Cl)cc1)C(=O)NCC1CCCN1S(=O)(=O)c1cccs1 (stereo not drawn) | -0.28
59 | CN(C(=O)c1ccco1)C1(c2ccccc2Cl)CCCCC1=O (stereo not drawn) | 13.1
60 | O=C(Nc1ccc2c(c1)OCO2)C1CCCN(S(=O)(=O)Cc2ccccc2)C1 (stereo not drawn) | 7.32

Reference: paper PMC4336329 (PLoS ONE, 2015)
